The source of these data is PMC12136788.

Some of the results follow.

T1: UNK ZnF1-3 (human, UniProt Q9C0B0 31-174)
T1 sequence: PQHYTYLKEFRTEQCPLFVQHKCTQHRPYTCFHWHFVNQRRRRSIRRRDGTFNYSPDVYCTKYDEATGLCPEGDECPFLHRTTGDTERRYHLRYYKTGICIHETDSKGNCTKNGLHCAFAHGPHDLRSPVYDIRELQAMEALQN

B1: 80223426_80228509_597_CDS_ENSG00000135338_ENST00000369846|human|control|control (ssRNA)
RNA: GGGAGUUCUACAGUCCGACGAUCUGGUAGACCCUUAGGGCUUGGUUUCCGAGGGGCUUGGUGAUGUACUUGGCCAUCUGAAGUUUGUCUUUUAGGAUUUUUUCUCCUAACACUUGCAGGUGAAGAACUGACCAGCGAUGAUCGCAACAGAGGAUUGAGCAUCA
B2: chr5:100466915:100466916:-_ENSMUSG00000029328_ENSMUST00000153442|mus_mus|FALSE|FALSE (ssRNA)
RNA: GGGAGUUCUACAGUCCGACGAUCAGCACAAAUCCAAAUCCUCUUGAUCUUCCCGUGACUGGGUCUGUUUUAAUUGUGCAGUCUACCACUUCCCCAAAUCGAGACAAAUAUUCAGUCAGAUCUUUCUUGCUUGUAUCCCAGCUCCAACAGAGGAUUGAGCAUCA
B3: chr4:38126685:38126686:+_ENSG00000065882_ENST00000510573|hu_hu|FALSE|FALSE (ssRNA)
RNA: GGGAGUUCUACAGUCCGACGAUCGUCUUUUCCAUCUGUACCAAGCCAAGGUUGGGUAGCGUGCUUUUUAUAAAGUCAACUAUGGUUUCUAGGUUUUCAUGCUGCAGAAUCAAGGGCUUAUGGCUUCCCAACAGACUUAAAGCCCAACAGAGGAUUGAGCAUCA
B4: chr13:48919227:48919228:+_ENSG00000139687_ENST00000267163|hu_mus|motif|central (ssRNA)
RNA: GGGAGUUCUACAGUCCGACGAUCCUUGGUACUGGUAUCGAUUUCUUUUAAUAAGUCAAAGAAUUUAUAGACACUGGUUUCGGUGCUUUUCUGUAGCUCAGUAAAAGUGAAUGGCAUCUCAUCUAGAUCAACUGCUGCGAUAAACAACAGAGGAUUGAGCAUCA
B5: chr12:32871593:32871594:+_ENSG00000087470_ENST00000452533|hu_mus|FALSE|FALSE (ssRNA)
RNA: GGGAGUUCUACAGUCCGACGAUCCAAUACAUCCAUGGCAUCAGUACCCGCAUCCAUGAGAUCAAGUUUAGUGAUUACAGCUAGAGUUCUGCGCCCAUCUGGAUCUACCUCUCUGGAAAUCUUGAGUGCUUCUGAUGUUGCCAUCAACAGAGGAUUGAGCAUCA
B6: 110434536_110436406_1209_CDS_ENSG00000134987_ENST00000506538|human|control|control (ssRNA)
RNA: GGGAGUUCUACAGUCCGACGAUCCCACAACUGCAGGCUUCCUUGUUCACUGCCCAGAAGUAUUUUAUUCAAGUAGGUACUUGGAUGCAAAAUUGCAGAAAUUUUAAAUACUGAUUUAUCAAAAGUCAACUGCAGGUAUUCUUCCAACAGAGGAUUGAGCAUCA
B7: chr7:140404665:140404666:+_ENSG00000090266_ENST00000247866|hu_hu|hu_hu_hu_mus_False|28_78 (ssRNA)
RNA: GGGAGUUCUACAGUCCGACGAUCUGCUCCUACUCGUCCAGAGAGUUUACAGUGUCAGUCUUCAUCAUCAGGAGGGAUUCCCAGUUCUUCAUCUGUCCACUGUGAAGGAUCAGGAUAUGAAAAGUGACCCAGCACAGCAUCCGACAACAGAGGAUUGAGCAUCA
B8: chr2:104430793:104430794:+_ENSMUSG00000027176_ENSMUST00000028599|mus_mus|motif|central (ssRNA)
RNA: GGGAGUUCUACAGUCCGACGAUCCGUCUCCUGACAUGGCCUCGGGGGACUACAACGUACGCACCAGCCGGCAAAGGGAAGCGGGAAAAGGAAAAUUAAACUAAAGGCAAACCCCACCAAAACCAGGAACACUACCCCUGUCCCCAACAGAGGAUUGAGCAUCA
B9: chr22:38882006:38882007:-_ENSG00000100201_ENST00000396821|hu_mus|FALSE|FALSE (ssRNA)
RNA: GGGAGUUCUACAGUCCGACGAUCUGGAGGAGGGGGAGGGGGAGGGGGAGGGUACUGGUAAGCAGUCUGCCCCAUGUAGCCUAUCAUAUUGGUAGCUCCUGGAGGCUGUGCAAACUGCUGUGACAUCAGUGGCUGUGGCUGCUGCAACAGAGGAUUGAGCAUCA
B10: 42737102_42738829_3480_CDS_ENSG00000103994_ENST00000263805|human|control|control (ssRNA)
RNA: GGGAGUUCUACAGUCCGACGAUCAUCCAUGCACUGCAAUGACUUACUAAGUUCUUCCUCCCUUAAAGAAAUAUUCAGCAGCUGGUCAACCUGAGAACGUUCUUUUUUUCCUUUAAUUUUCCUUCUUUUAUUUUUUCUCUCAAGCAACAGAGGAUUGAGCAUCA
B11: 27614021_27614141_989_CDS_ENSG00000108256_ENST00000225388|human|control|control (ssRNA)
RNA: GGGAGUUCUACAGUCCGACGAUCUUUGGAGGCAACAGCUGAAGCAUGCUUUCCUUUGGGCCGAUCAUCAAACUUUUUGCUGCUCACACCAGGUUUACUAUCUGAGCUUUUCCGAAGCAUAUCACCCACAGCAGGUUUUCCUCGCAACAGAGGAUUGAGCAUCA
B12: chr2:37284132:37284133:-_ENSMUSG00000066798_ENSMUST00000053098|mus_mus|motif|central (ssRNA)
RNA: GGGAGUUCUACAGUCCGACGAUCAUACAGAUUGGGUGGGGGGCAACACUACAUGUGCUGCAUUUUUAUAAAAUGUGUCGGAAAAAGUCAUUGAUUUGAUUACAGUAGAUUCUGCCGUUUGAGAUCAGGCCUAGAUAAUUUUUCCAACAGAGGAUUGAGCAUCA
B13: chr8:61654917:61654918:+_ENSG00000171316_ENST00000423902|hu_hu|FALSE|FALSE (ssRNA)
RNA: GGGAGUUCUACAGUCCGACGAUCAUUCAUUGGAGUAUUAUUUGUAAGGCCUAAAUUUUGAUUCAUCCCUGUAUUGUUAACUAAUCCCUGAUUUAGGUUACUGUAAGGAUAUCGAGAAUACUGCCCUGAGUUGUUUAUAGUAGGCAACAGAGGAUUGAGCAUCA
B14: chr7:141438946:141438947:+_ENSG00000106028_ENST00000265304|hu_mus|hu_hu_hu_mus_True|38_38 (ssRNA)
RNA: GGGAGUUCUACAGUCCGACGAUCGACGAAAUACCUGUAACACAGGUCUUCGAAACAUGGCUUCUGUUUUUCUUACAACCUAAUCUUUAGGCUUUUCCUGACGAUCUGAAAGAAAAGAGAAAAAUGAUAAAUCAAGAAACUACACAACAGAGGAUUGAGCAUCA
B15: chr7:75932113:75932114:+_ENSG00000106211_ENST00000248553|hu_hu|hu_hu_hu_mus_False|1_88 (ssRNA)
RNA: GGGAGUUCUACAGUCCGACGAUCCUGCGACCACUCAUCGGGCAACCGGGGCAGCCCGAAAGCUUGAUCGAAGAGGCGGCUGUGUGCAGGGUACCAGUCCCGGAAUGGUUCCCAGCUCGGGCUCCGCAGCAGCGAGAGGACGCGCAACAGAGGAUUGAGCAUCA
B16: chr11:43861564:43861565:+_ENSG00000149084_ENST00000278353|hu_hu|motif|central (ssRNA)
RNA: GGGAGUUCUACAGUCCGACGAUCCAGUUUUGUAGCUACGAAGUAUGGCAGGACACUCUGCACAAAGACGCCCUUGCUCCGGUACUCCUCAUGGAGGCACUGAGAGAAGAAAUCUACAAAAGUCUUGGUUGCAGAAUAGAUGGUCAACAGAGGAUUGAGCAUCA
B17: chr13:111190716:111190717:+_ENSMUSG00000021701_ENSMUST00000022212|mus_hu|FALSE|FALSE (ssRNA)
RNA: GGGAGUUCUACAGUCCGACGAUCCAGUUCCAAAGUCCUCUGGCUGAAAUGCUCUCAACAGAGAGAAUUUAAGAAUCAAUGCACCUUUCUGCAAAAUUGUCUGAAAAACCUUUUAAAACAGGUAUCUCAAGGAAAACUGCAUUCCAACAGAGGAUUGAGCAUCA
B18: chr1:163112212:163112213:-_ENSG00000143248_ENST00000313961|hu_hu|hu_hu_hu_mus_False|1_68 (ssRNA)
RNA: GGGAGUUCUACAGUCCGACGAUCUUUUAUUAUCAGUAAGAGUGAGUUACAUACUAGGCAAAGUAUUGAAUACAAAAAUCAGGAAACAAACACUAUUGGUCCAGAAUUUAAAACUUUAUGAGCGAAGUGCUGGCACAGGAUUUACAACAGAGGAUUGAGCAUCA
B19: chr1:85784824:85784825:-_ENSG00000153904_ENST00000284031|hu_mus|FALSE|FALSE (ssRNA)
RNA: GGGAGUUCUACAGUCCGACGAUCGGGGCAAUGAUUUUCCCUUUUAGAGGUAACGUUAUGUGAUGAGAACAUCGAAGGGGCAAUGCUGCGUGUAUUUUGCGUGUUCACAUCUCUGAAUCACACAGGGGGUCUGAAGAGCAGAGUCAACAGAGGAUUGAGCAUCA
B20: chr3:35992786:35992787:+_ENSMUSG00000027710_ENSMUST00000011492|mus_mus|motif|central (ssRNA)
RNA: GGGAGUUCUACAGUCCGACGAUCAAAAAUGGAGCAGAUACCGAAAGAAAGGUCAUCCAGAGAUGGGCCCAAUUUGCAAUCGGUCCGGUGUAAAGGCACCAAACACCAACACUAUUACUGCUGUGUUUGCAGAUAGGAGCCCAGCAACAGAGGAUUGAGCAUCA
B21: chr21:33032072:33032073:+_ENSG00000142168_ENST00000270142|hu_hu|FALSE|FALSE (ssRNA)
RNA: GGGAGUUCUACAGUCCGACGAUCUGCACUGGGCCGUCGCCCUUCAGCACGCACACGGCCUUCGUCGCCAUAACUCGCUAGGCCACGCCGAGGUCCUGGUUCCGAGGACUGCAACGGAAACCCCAGACGCUGCAGGAGACUACGCAACAGAGGAUUGAGCAUCA
B22: chr1:193054138:193054139:+_ENSG00000116747_ENST00000432079|hu_hu|FALSE|FALSE (ssRNA)
RNA: GGGAGUUCUACAGUCCGACGAUCUUACACUUUUUGCUCUUACCUCUUUUAGGUACACACGUAUUAUUCAACAAAGCAAAACUAUUUUACAGUGUCUGUUAACAAAAAGUUCUCUAUUAGAUAGAGGAAACUACAGUAUCCUGACAACAGAGGAUUGAGCAUCA

This experiment addresses T1, UNK ZnF1-3. Briefly: nsRBNS (natural sequence RNA bind-n-seq); RBNS binding buffer (assumed for nsRBNS): 25 mM Tris pH 7.5, 150 mM KCl, 3 mM MgCl2, 0.01% Triton X-100, 500 ug/ml BSA, 20 U/ml SUPERase-In, 4 C; UNK is unkempt and MSI1 is Musashi-1; names of the RNAs are library labels; protein concentration not given here; high values mean tight binding.
The molecule B1 had a binding signal of 0.569 enrichment R.
Molecule B2 had a binding signal of 1.06 enrichment R.
Next, B3: 0.953 enrichment R; B4: 0.884 enrichment R.
The figure for B5 is 1.16 enrichment R.
Next, B6: 1.07 enrichment R.
Take B7: the binding signal came to 1.18 enrichment R.
In the case of B8, the binding signal is 2.18 enrichment R.
Molecule B9 returned a binding signal of 1.39 enrichment R.
Next, B10: 1.08 enrichment R; B11: 0.969 enrichment R; B12: 1.56 enrichment R.
B13 registered a binding signal of 0.83 enrichment R.
The figure for B14 is 0.683 enrichment R; for B15 it is 1.05 enrichment R; for B16 it is 1.11 enrichment R.
On to B17, for which the binding signal stood at 1.08 enrichment R.
In the case of B18, the binding signal came out at 1.38 enrichment R.
B19: the binding signal was found to be 0.839 enrichment R.
B20 returned a binding signal of 1.02 enrichment R.
As for B21, the binding signal came to 0.576 enrichment R.
Next, B22: 0.427 enrichment R.
